Test results published in US20240368664A1, “LIVE YEAST BIOSENSORS AND METHODS OF USE THEREOF” (priority 2021, published 2024).

target: ScSte2 (Saccharomyces cerevisiae, UniProt D6VTK4); experiment: ScSte2 biosensor dose-response, ymTurquoise2 readout, no protease (incl. ScPep alanine scan, yTC391); format: cell-based; details: ymTurquoise2 fluorescence, Hill function best-fit ± standard error
Sequence (D6VTK4 whole entry): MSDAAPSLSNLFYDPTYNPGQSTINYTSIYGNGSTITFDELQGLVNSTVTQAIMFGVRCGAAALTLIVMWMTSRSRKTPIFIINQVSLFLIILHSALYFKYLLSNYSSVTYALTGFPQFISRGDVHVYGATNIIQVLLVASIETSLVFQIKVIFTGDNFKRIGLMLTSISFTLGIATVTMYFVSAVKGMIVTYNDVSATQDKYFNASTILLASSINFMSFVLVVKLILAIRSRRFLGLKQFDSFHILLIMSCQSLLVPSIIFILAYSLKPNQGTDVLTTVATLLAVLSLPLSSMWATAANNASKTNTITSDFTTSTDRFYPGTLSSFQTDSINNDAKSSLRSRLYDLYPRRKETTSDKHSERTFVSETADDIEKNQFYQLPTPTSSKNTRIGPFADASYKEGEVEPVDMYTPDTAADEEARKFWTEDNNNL

Sequence | Bottom [A.U.] | Top [A.U.]
AHWLQLKPGQPMY [ScPep1A] | 6.4 ± 3.4 | 320 ± 10
WAWLQLKPGQPMY [ScPep2A] | 4.9 ± 2.1 | 270 ± 10
WHALQLKPGQPMY [ScPep3A] | 4.2 ± 1.6 | 280 ± 10
WHWLALKPGQPMY [ScPep5A] | 5.0 ± 2.3 | 380 ± 10
WHWLQAKPGQPMY [ScPep6A] | 3.9 ± 2.3 | 310 ± 10
WHWLQLAPGQPMY [ScPep7A] | 10 ± 4 | 400 ± 10
WHWLQLKAGQPMY [ScPep8A] | 4.5 ± 1.7 | 430 ± 10
WHWLQLKPAQPMY [ScPep9A] | 3.9 ± 2.1 | 370 ± 10
WHWLQLKPGAPMY [ScPep10A] | 4.9 ± 2.4 | 380 ± 10
WHWLQLKPGQAMY [ScPep11A] | 5.3 ± 3.7 | 410 ± 10
WHWLQLKPGQPAY [ScPep12A] | 5.9 ± 4.7 | 410 ± 10
WHWLQLKPGQPMA [ScPep13A] | 4.9 ± 2.5 | 360 ± 10

test system: SjSte2 with peptide proteases; experiment: not given; details: not given
Protocol: All measurements were performed in biological triplicate.

Sequence | shift of apparent EC50 by complementary protease
VSDRVKQMLSHWWNERNPDTANL [SjPep] | more than one order of magnitude

No end group written: not given here.
